Among all 310,000 compounds or so, about 18,000 (5.8%) were called active. The inconclusive results got no clear call from the source; some entries with a clear call stand among them for comparison. Calls come from the whole dose curve; as a rule, active = well fitted inhibition curve with a large enough effect; inconclusive = small, poorly fitted or top-dose-only effect, or another doubt; inactive = no such curve, though single readings can be large or run the other way. No potency is given beside an inconclusive call; the fits are too rough.
Test: Primary qHTS for delayed death inhibitors of the malarial parasite plastid, 48 hour incubation
Details: P. falciparum luciferase growth in erythrocytes; series mostly up to 28.7 µM; activity change, negative = inhibition: at the top concentration
In short: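 Erythrocytes infected with P. falciparum carrying an integrated firefly luciferase reporter (2% hematocrit, 0.1% parasitemia final) were exposed to compounds in RPMI 1640 with 0.5% Albumax at 37 C, 5% CO2. Growth inhibition was scored as reduced luminescence.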
% is set by controls: 0 for no effect and ±100 for the full control effect; potency is the fitted concentration of half-maximal effect; tags give direction and shape of the fitted curve.

Row | Structure (SMILES) | Potency | activity change, negative = inhibition
1 | O=C(NC(=S)NCc1ccccc1)c1ccccc1Br | inconclusive [inhibitor, partial curve, poor fit] | 
2 | O=C(COc1ccc(Br)cc1)Nc1ccc(NC(=O)c2ccccc2)cc1 |  | inactive: 7.84%
3 | COc1cc(/C=N/NC(=O)c2nnn(-c3nonc3N)c2C(C)C)ccc1OCc1ccccc1 | inconclusive [inhibitor, single point] | 
4 | O=C(N/C(=C\c1ccc(Cl)cc1)C(=O)N1CCCCC1)c1ccco1 |  | inactive: 1.89%
5 | CC(C)NCC(O)COC1CCC(C(C)(C)C)CC1 (configuration not stated) | inconclusive [inhibitor, partial curve, poor fit] | 
6 | CCN(CC)CCCN(Cc1cc2cc3c(cc2[nH]c1=O)OCO3)C(=S)Nc1ccccc1 | inconclusive [inhibitor, single point] | 
7 | N#Cc1cc(S(=O)(=O)c2ccccc2)c(N)[nH]c1=O | active: 3.7 µM | 
8 | COc1ccc(CNC(=O)CCC(=O)Nc2ccc(Cl)cc2)cc1 |  | inactive: 8.29%
9 | Cc1ccc(C(=O)COC(=O)c2ccc(-c3cnc4ccccc4n3)cc2)cc1C |  | inactive: 35.7%
10 | CCOC(=O)C1=C(c2ccccc2)NC(SC)=C(C#N)C1c1cccnc1 (configuration not stated) | inconclusive [inhibitor, single point] | 
11 | CC(=O)c1ccc(OCC(O)CN2CCN(CC(O)COc3ccc(C(C)=O)cc3)CC2)cc1 (configuration not stated) | inconclusive [inhibitor, partial curve, poor fit] | 
12 | CCOC(=O)c1ccc(NC(=O)CSc2nnc(CNc3ccc(OC)cc3)n2C)cc1 | active: 6.57 µM | 
13 | Cc1c(OCC(=O)NCCCN2CCCC2=O)ccc2c3c(c(=O)oc12)CCC3 |  | inactive: -24.7%
14 | Cc1cccc(OC(C)C(=O)Nc2nc(-c3ccncc3)cs2)c1 (configuration not stated) | inconclusive [inhibitor, single point] | 
15 | COc1cc(/C=N/NC(=O)C[n+]2ccccc2)cc(OC)c1OC(C)=O | inconclusive [inhibitor, single point] | 
16 | CCOc1ccc(/C=N/NC(=O)c2cc3c(OC)cccc3[nH]2)cc1 | inconclusive [inhibitor, single point] | 
17 | CCOC(=O)[C@@H]1[C@H]2COc3cc(OC)ccc3[C@H]2N2C(=O)N(c3ccc(C(F)(F)F)cc3)C(=O)[C@@]12C | inconclusive [inhibitor, partial curve, poor fit] | 
18 | O=C(Nc1ccc(CN2CCS(=O)(=O)CC2)cc1)c1ccc(C(F)(F)F)cc1 | inconclusive [inhibitor, single point] | 
19 | Cn1ncc(Br)c1NC(=O)c1ccco1 |  | inactive: 10.6%
20 | CCOC(=O)c1c(C)n(CCNC(C)=O)c2ccc(OC)cc12 |  | inactive: 10.5%
21 | CCOc1ccc(CCNC(=O)COC(=O)CCc2cc(OC)c(OC)c(OC)c2)cc1OCC | active: 13.1 µM | 
22 | CC1CC1c1ccc(/C=C(\C#N)C(=O)Nc2ccc(Cl)cc2)o1 (configuration not stated) |  | inactive: 134%
23 | O=C(CSc1nc2ccccc2c(=O)n1-c1ccccc1Cl)NCC1CCCO1 (configuration not stated) | inconclusive [inhibitor, single point] | 
24 | CC1CC(C)CN(CCCNC(=O)c2ccc3nc(N4CCCCC4)sc3c2)C1 (configuration not stated) |  | inactive: -6.69%

Row | Structure (SMILES) | Potency | activity change, negative = inhibition
25 | Cc1cccc(OCc2nnc(SCC(=O)N3CC(=O)Nc4ccccc43)o2)c1 | inconclusive [inhibitor, single point] | 
26 | CCOC(=O)C1=C(C)N=c2s/c(=C\c3cc(OC)c(OC)c(OC)c3)c(=O)n2C1/C=C/c1ccccc1 (configuration not stated) | active: 14.7 µM | 
27 | CC1CCN(c2nc(N(C)c3ccccc3)nc(N)c2[N+](=O)[O-])CC1 | inconclusive [inhibitor, single point] | 
28 | O=S(=O)(c1ccc(NCC2CCCCC2)nc1)N1CCOCC1 |  | inactive: -6.29%
29 | O=C1C2CC=CCC2C(=O)N1Cc1ccccc1Cl (configuration not stated) |  | inactive: 0.199%
30 | Cc1cc(C)nc(SCCC(=O)Nc2ccccc2Cl)n1 |  | inactive: 45.3%
31 | Cn1cc(S(=O)(=O)Nc2cccc3ccccc23)c(=O)n(C)c1=O |  | inactive: -13.7%
32 | COc1ccccc1/C=C/C(=O)c1ccccc1 |  | inactive: 46%
33 | CCCn1c(C(C)Nc2nc(-c3ccc(C)cc3)cs2)nc2cc(Cl)c(N3CCCCC3)cc21 (configuration not stated) | inconclusive [inhibitor, single point] | 
34 | CCc1ccc(NC(=O)Nc2cccc(OC)c2)cc1 |  | inactive: 104%
35 | Cc1ccc(N(C(=O)CCC(=O)Nc2cc(C)on2)C(C(=O)NC2CCCC2)c2ccncc2)cc1 (configuration not stated) | inconclusive [inhibitor, partial curve, poor fit] | 
36 | CCOC(=O)C1(Cc2ccccc2C)CCCN(C(=O)CN2CCCCC2=O)C1 (configuration not stated) | inconclusive [inhibitor, full curve] | 
37 | Cc1ccc(/C(O)=C2/C(=O)C(=O)N(c3ccccn3)C2c2ccc(F)cc2)cc1 (configuration not stated) |  | inactive: -16.2%
38 | COc1cc(C)c(NC(=S)Nc2ccc(Cl)c(Cl)c2)cc1OC | inconclusive [inhibitor, single point] | 
39 | COc1cccc(N/C(SCc2ccccc2C)=C(/C#N)C(=O)NCc2cccs2)c1 | inconclusive [inhibitor, single point] | 
40 | CCCCN1C(=O)C2(NNc3ccccc3O2)c2ccccc21 (configuration not stated) | active: 10.4 µM | 
41 | COc1cccc2cc(C(=O)Nc3ccc(S(=O)(=O)NCC4CCCO4)cc3)c(=O)oc12 (configuration not stated) | active: 2.08 µM | 
42 | CCCCN(C(=O)C(C)Oc1ccc(Br)cc1)c1c(N)n(Cc2ccccc2)c(=O)[nH]c1=O (configuration not stated) | inconclusive [inhibitor, single point] | 
43 | CCC(=O)N(Cc1cc(=O)[nH]c2ccccc12)c1cccc(C)c1 | inconclusive [inhibitor, single point] | 
44 | CC(OC(=O)c1ccc2ncsc2c1)C(=O)N1CCCC1 (configuration not stated) |  | inactive: -21%
45 | O=C(COC(=O)C1=COCCO1)Nc1ccc([N+](=O)[O-])cc1C(F)(F)F |  | inactive: 4.32%
46 | O=C(Nc1ccc2c(c1)OCO2)C1CCN(C(=O)CSc2ncnc3ccccc23)CC1 | inconclusive [inhibitor, single point] | 
47 | COc1cc(CN2CCN(C(=O)c3ccccc3F)CC2)cc(OC)c1OC |  | inactive: -6.15%

From PubChem BioAssay AID504832 (National Center for Advancing Translational Sciences (NCATS), 2011)
